Among the data in article PMC7819943, “Rice protein-binding microarrays: a tool to detect cis-acting elements near promoter regions in rice” are binding signal values, retold here.

This is one part of the list.

The experiment concerns the target T1, OsWOX13 (Oryza sativa, UniProt Q5QMM3 1-267).
T1 sequence: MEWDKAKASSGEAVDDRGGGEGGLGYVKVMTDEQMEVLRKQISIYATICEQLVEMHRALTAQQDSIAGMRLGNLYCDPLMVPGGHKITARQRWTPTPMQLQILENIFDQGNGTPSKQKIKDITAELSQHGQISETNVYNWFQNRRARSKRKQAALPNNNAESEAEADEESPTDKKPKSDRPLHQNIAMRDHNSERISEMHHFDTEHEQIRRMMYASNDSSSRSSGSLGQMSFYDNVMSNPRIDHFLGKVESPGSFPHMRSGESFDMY
The experiment in a line: protein-binding microarray (RPBM); PBS, 2% BSA, 51.3 ng/ul salmon testes DNA, 50 uM zinc acetate, 200 nM TF, 25 C, 1 h; high values mean tight binding. Conditions: protein: recombinant; tags: N-terminal polyhistidine and DsRed monomer fusion (pET32a); label: CyDye5-dUTP incorporated in the synthesized complementary strand; 3' TTTTT single-stranded linker to array surface; dsDNA, one strand shown. A digest of the protocol: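 Transcription factors were made in E. coli BL21-CodonPlus as N-terminal fusions to a polyhistidine tag and DsRed, then purified on Ni–NTA. After primer extension with Cy5-dUTP and blocking with 2% BSA, a custom Agilent array was exposed for 1 h at 25 °C to 200 nM protein in PBS, 2% BSA, salmon testes DNA and 50 µM zinc acetate. Washed arrays were scanned on an Axon 4000B, and the binding signal is per-feature fluorescence intensity in arbitrary units.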
Regarding “CAAAATAAATTTGAACAAAATTTTGCCCAAAATCATGAGACGGAGTCACCTAGTGCAG”, the binding signal was 9600 fluorescence intensity (a.u.).
Turning to “GTTTGTCTTAATTGTACATGGAATTTATGAACTAGAAATTCGGAGTCACCTAGTGCAG”, the binding signal was 6390 fluorescence intensity (a.u.).
Under “TCTATCACTCAATCAAAGAGCACTATAACCCACTTTTACACGGAGTCACCTAGTGCAG” stands 5680 fluorescence intensity (a.u.); under “GATTCAATCAAACAGTTATTCCTGTGTTTTGCAATTCTCTCGGAGTCACCTAGTGCAG”, 17300 fluorescence intensity (a.u.); under “TATAAATTTGGACACATATATGAAACACATATATTGATCCCGGAGTCACCTAGTGCAG”, 8100 fluorescence intensity (a.u.).
On to “GTGGCTGTGATTGTGTGATTGTGTACCTGTTTGTAGTGAACGGAGTCACCTAGTGCAG”, for which the binding signal is 20500 fluorescence intensity (a.u.).
As for “CCTCTCGTCCCGTCAATCACAGCACCAACTGCTACCGGCGCGGAGTCACCTAGTGCAG”, the binding signal was 28100 fluorescence intensity (a.u.).
With “CTTGATCAATTAACTTAATATGACTGAATTATGCCAATATCGGAGTCACCTAGTGCAG”, the binding signal is 38500 fluorescence intensity (a.u.).
On to “GCAGGATTATTCCTGATTCATAGATACTAACAAGTGATTCCGGAGTCACCTAGTGCAG”, for which the binding signal is 3180 fluorescence intensity (a.u.).
Under “AATTTAATGTAAAATTTAGTACCTAATAGTATCTAGGTATCGGAGTCACCTAGTGCAG” stands 7910 fluorescence intensity (a.u.); under “ACTCTGATGCACAAATTGCTAAACTATGCAGAATCTGACTCGGAGTCACCTAGTGCAG”, 4160 fluorescence intensity (a.u.); under “ATTGTGTGAAGGAAGATGATTGGATGCTGATTTATAGATGCGGAGTCACCTAGTGCAG”, 19800 fluorescence intensity (a.u.).
Take “TTGGATAATTGATAAATAGAATAGTAGCAAATACTTAAATCGGAGTCACCTAGTGCAG”: the binding signal was 28900 fluorescence intensity (a.u.).
With “AAGAGACCGGAAATCAATCCATTAGTCAATAGGTGTGAAACGGAGTCACCTAGTGCAG” the figure was 3800 fluorescence intensity (a.u.); with “TTTCAATCGCGTAAAATGACCATTCCTATTTCTCCCTAACCGGAGTCACCTAGTGCAG”, 3220 fluorescence intensity (a.u.).
With “TTGCATTAATAATTAACCCAATCTGCAGACTGCAGTGCAGCGGAGTCACCTAGTGCAG” the figure was 7050 fluorescence intensity (a.u.).
Under “ATGAAAATTGACAAACATTAGCCATTAGTATAAACATTTTCGGAGTCACCTAGTGCAG” stands 10200 fluorescence intensity (a.u.); under “TTAAGATTGATTTTAAATATATTTTAAGCAAACAATTTTACGGAGTCACCTAGTGCAG”, 21500 fluorescence intensity (a.u.).
For the sequence “ATAATTAATGTAGCAAGAGAAAATGTATGCATGCTAAGGTCGGAGTCACCTAGTGCAG”, the binding signal was 5240 fluorescence intensity (a.u.).
Under “AAATAATTAAGAAATTATAAAAGAAGTCTGGGCATGCTAGCGGAGTCACCTAGTGCAG” stands 14100 fluorescence intensity (a.u.); under “CTCTTTCTAATCAACTGTAACCCTACAGTTGTTTTGTTCTCGGAGTCACCTAGTGCAG”, 3370 fluorescence intensity (a.u.); under “GTTTCAATGATTGGTTGTTCACCCAACCCAAGTACCCAGCCGGAGTCACCTAGTGCAG”, 57400 fluorescence intensity (a.u.).
Under “AGCATGGTGATTGAACGCAGCTTGGACAATGCAGAGGATGCGGAGTCACCTAGTGCAG” stands 40600 fluorescence intensity (a.u.); under “TTAAAATTGTTAAGAGAGTCAAATTGCATCGGCTTTAATACGGAGTCACCTAGTGCAG”, 3190 fluorescence intensity (a.u.).
“ATGCTAAACATAAATTTGGATCATTCATCACTAGCGCTACCGGAGTCACCTAGTGCAG”: the binding signal is 7330 fluorescence intensity (a.u.).
Under “AGTTAATTAATTAGTCCATCCAAGGAAGGAGTATATGATTCGGAGTCACCTAGTGCAG” stands 55800 fluorescence intensity (a.u.).
Under “ATTCGATTGATGACGTGGCGCCGCCAGCCGATGTGTGGACCGGAGTCACCTAGTGCAG” stands 24300 fluorescence intensity (a.u.).
With “TCCGCAAAACTTCCCAATAATTAAACCGTGAAATTTCAGCCGGAGTCACCTAGTGCAG” the figure was 3840 fluorescence intensity (a.u.); with “GGCTATCGGTGGGTGGGTGGGGTGTACTACTCCCCTATAACGGAGTCACCTAGTGCAG”, 3620 fluorescence intensity (a.u.); with “TTTATATTTAACTAAATTTATAGATAAATATAGTAATATTCGGAGTCACCTAGTGCAG”, 5460 fluorescence intensity (a.u.).
Take “AATGCTTAATTTGACACACTTGCACTTGTAGGATGGGTATCGGAGTCACCTAGTGCAG”: the binding signal is 10000 fluorescence intensity (a.u.).
With “GCTTAATTTGTCCTCCGATCCTCTCCTGGTCTCGGGTCTCCGGAGTCACCTAGTGCAG” the figure was 28500 fluorescence intensity (a.u.); with “ATTCGACCTGACGAGATTTGACTGGTACGCAGATAACGAACGGAGTCACCTAGTGCAG”, 3720 fluorescence intensity (a.u.); with “GATAACTATTTAACAAATTTTAAGTAGAATTATGTGTAAACGGAGTCACCTAGTGCAG”, 4310 fluorescence intensity (a.u.).
Under “CTGAACGATTGGCTGCTAAATTAAGGACGATTGATGATGCCGGAGTCACCTAGTGCAG” stands 22400 fluorescence intensity (a.u.); under “CATAACACTAATTGAGGTATCCATGGCATCCATCAGGTAGCGGAGTCACCTAGTGCAG”, 45500 fluorescence intensity (a.u.).
With “CAGTTAAATTTATTTTATGTCCTTGTTTCAAGTTTTGAGCCGGAGTCACCTAGTGCAG” the figure was 14300 fluorescence intensity (a.u.).
Turning to “GTGAAACGAGCGTAACTTAACTGGTTAGATTTCTTATGGTCGGAGTCACCTAGTGCAG”, the binding signal was 3480 fluorescence intensity (a.u.).
Under “ACAATTGAATGATTGATTGCAGCTCAAGCTTCAATCCGCACGGAGTCACCTAGTGCAG” stands 63900 fluorescence intensity (a.u.).
Under “TACCGTTTTCACCCCTAATTGGGACAACCCAATTTGCAGTCGGAGTCACCTAGTGCAG” stands 6380 fluorescence intensity (a.u.).
In the case of “GTAATAATTATTATATTTTAGTGCGTACCAGCACTCCCATCGGAGTCACCTAGTGCAG”, the binding signal is 13700 fluorescence intensity (a.u.).
With “TATCTTAAAGTTAACTGTAAAATTTAAATCTAAACCTTAGCGGAGTCACCTAGTGCAG” the figure was 3310 fluorescence intensity (a.u.).
